Laboratory results taken from PubChem BioAssay AID588342 (National Center for Advancing Translational Sciences (NCATS), 2011).
Hit rate of the full screen: of about 360,000 compounds, about 25,000 (6.9%) were called active. Inconclusive results, whose numbers are uncertain, are shown with a selection of clear calls. Calls follow the shape of the dose curve; as a rule, active = well fitted inhibition curve with a large enough effect; inconclusive = small, poorly fitted or top-dose-only effect; inactive = flat fitted curve, though single readings scatter. Where the call is inconclusive, the potency comes from a doubtful curve fit.

target: Luciferin 4-monooxygenase (Photinus pyralis) (UniProt P08659); test: qHTS profiling assay for firefly luciferase inhibitor/activator using purifed enzyme and Km concentrations of substrates (counterscreen for miR-21 project); conditions: purified FLuc, luminescence inhibition; series mostly up to 57.5 µM; activity change, negative = inhibition: at the top concentration; also: nearly all actives have a fitted effect of over 55% in size;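 as to activity change, negative = inhibition: plate controls were vehicle for no effect and reference inhibitor for full effect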
Method in brief: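 Purified P. pyralis luciferase (10nM final) with 10uM D-luciferin and 10uM ATP (Km levels) in 50mM Tris acetate pH 7.5, 10mM Mg acetate, 0.01% Tween-20, 0.05% BSA; qHTS 6-point titration, ~60 µM downward; luminescence read.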
Potency is read from the fitted curve at half-maximal effect; tags tell the direction and shape of the fitted curve.

Sequence of UniProt P08659 (P08659 whole entry, looked up): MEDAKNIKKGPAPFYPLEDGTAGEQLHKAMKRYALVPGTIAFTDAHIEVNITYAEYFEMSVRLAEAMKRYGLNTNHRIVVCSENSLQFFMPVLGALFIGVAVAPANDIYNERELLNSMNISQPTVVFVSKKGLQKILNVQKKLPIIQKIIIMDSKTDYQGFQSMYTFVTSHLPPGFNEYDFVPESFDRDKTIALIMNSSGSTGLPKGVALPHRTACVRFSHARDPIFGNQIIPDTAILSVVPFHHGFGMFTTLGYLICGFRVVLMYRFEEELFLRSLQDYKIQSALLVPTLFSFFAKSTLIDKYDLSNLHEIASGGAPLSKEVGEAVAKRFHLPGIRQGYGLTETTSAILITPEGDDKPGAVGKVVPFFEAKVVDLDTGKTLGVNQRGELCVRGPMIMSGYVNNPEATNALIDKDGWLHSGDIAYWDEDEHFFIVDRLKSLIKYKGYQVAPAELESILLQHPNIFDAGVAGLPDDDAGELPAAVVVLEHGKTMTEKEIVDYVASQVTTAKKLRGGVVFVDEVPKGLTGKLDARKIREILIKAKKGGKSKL

| Structure (SMILES) | Potency | activity change, negative = inhibition |
| --- | --- | --- |
| O=C(N/N=C/c1ccc[nH]1)c1ccc(COc2cccc3cccnc23)cc1 | inconclusive: 37.9 µM [inhibitor, partial curve, poor fit] |  |
| Cc1ccc(CN(C(=O)c2cc3ccccc3oc2=O)C2CCS(=O)(=O)C2)cc1 (centres undefined) | active: 16.9 µM |  |
| CC(C)c1ccccc1NCC(=O)N1CCN(Cc2ccccc2)CC1 |  | inactive: -0.95% |
| CC1(C)c2cc(O)ccc2OC1N1CCOCC1 (centres undefined) |  | inactive: -2.75% |
| CCOC(=O)/C(=C\c1cn(C)c2ccccc12)[N+](=O)[O-] | inconclusive: 19 µM [inhibitor, partial curve, poor fit] |  |
| COc1ccccc1N1CCN(c2nc3ccccc3n3cnnc23)CC1 |  | inactive: -18.5% |
| O=C(NCC1COCCO1)c1ccc2nc(Cc3cccc(Cl)c3)oc2c1 (centres undefined) | inconclusive: 19 µM [inhibitor, partial curve, poor fit] |  |
| Cc1cc(C)n(-c2cccc(Cl)c2C#N)n1 |  | inactive: 2.49% |
| COc1ccccc1/C=C/c1nc2ccc(OC(C)=O)cc2c(=O)o1 | inconclusive: 1.69 µM [inhibitor, full curve] |  |
| CC(C)(C)C(=O)Nc1ccc(C(=O)CN2C(=O)NC3(CCOc4ccccc43)C2=O)cc1 (centres undefined) | inconclusive: 37.9 µM [inhibitor, partial curve, poor fit] |  |
| COc1ccc(NC(=S)NNc2ccc(C(=O)O)cc2)cc1 | inconclusive: 13.5 µM [inhibitor, partial curve] |  |
| Cc1ccc2nc(N(CCCN(C)C)C(=O)c3ccco3)sc2c1 | inconclusive: 30.1 µM [inhibitor, partial curve, poor fit] |  |
| O=C(NC1C2CC3CC(C2)CC1C3)c1ccc2c(c1)OCO2 (centres undefined) | inconclusive: 26.9 µM [inhibitor, partial curve] |  |
| Cc1cc2ncn(C(=O)c3cc(-c4ccccc4)nc4ccccc34)c2cc1C | inconclusive: 37.9 µM [inhibitor, partial curve, poor fit] |  |
| O=C(/C=C\c1ccco1)c1ccc(NC(=O)c2ccco2)cc1 | active: 10.7 µM |  |
| CC1CN(Cc2ccc(Cl)cc2Cl)CC(C)O1 (centres undefined) | inconclusive: 21.3 µM [inhibitor, single point] |  |
| Cc1nc2ccc(NC(=O)c3ccc(Cl)c(NC(=O)c4cccs4)c3)cc2s1 | active: 13.5 µM |  |
| O=C(CSc1oc(-c2ccccc2)nc1S(=O)(=O)c1ccc(Br)cc1)c1ccccc1 |  | inactive: 2.62% |
| Cc1cc(N2Cc3ccccc3C2)ccc1C=O | active: 6.75 µM |  |
| COCCCNC1=C(Cl)C(=O)c2ccccc2C1=O | inconclusive: 26.9 µM [inhibitor, partial curve] |  |
| COc1ccc(NC(=O)c2cc(-c3ccccc3Cl)on2)cc1OC | active: 7.57 µM |  |
| COc1ccc(C)cc1NC(=O)COc1cc(=O)n(C)c2ccccc12 |  | inactive: -0.735% |
| O=C(N/N=C/c1cccnc1)c1cc(C2CC2)nc2ccccc12 |  | inactive: 1.1% |
| Nc1n[nH]c(N)c1N=Nc1ccccc1F | inconclusive: 26.9 µM [inhibitor, single point] |  |
| Cc1cc(NC(=O)CCN2C(=O)/C(=C/c3ccccc3F)SC2=S)no1 |  | inactive: -3.38% |

| Structure (SMILES) | Potency | activity change, negative = inhibition |
| --- | --- | --- |
| Cc1ccc(NC(=O)c2nnn(Cc3ccccc3)c2N)cc1C |  | inactive: -0.456% |
| Cc1ccc(NC(=O)Cn2c(O)c(N=NC(=O)c3cc4ccccc4cc3O)c3ccccc32)cc1 | inconclusive: 10.7 µM [inhibitor, partial curve, poor fit] |  |
| CC(C)NC(=O)c1ccc2c3n(nc2c1)-c1ccccc1CO3 | active: 0.426 µM |  |
| COc1ccc(NC(=O)c2ccco2)cc1NC(=O)c1ccc(C)c(C)c1 | inconclusive: 23.9 µM [inhibitor, single point] |  |
| OCCSc1nnc(Nc2ccccc2)s1 | inconclusive: 30.1 µM [inhibitor, partial curve, poor fit] |  |
| O=C1c2ccccc2NC(c2cccc(Cl)c2)N1N=C1CCCCCC1 (centres undefined) | inconclusive: 37.9 µM [inhibitor, partial curve, poor fit] |  |
| O=C1c2ccccc2C(=O)C1c1ccc(Cl)cc1 | inconclusive: 23.9 µM [inhibitor, single point] |  |
| CCC(Sc1ncc(S(=O)(=O)c2ccc(C)cc2)c(=O)[nH]1)C(=O)Nc1cc(C)ccc1C (centres undefined) | inconclusive: 12 µM [inhibitor, partial curve] |  |
| Cc1ccc2nc(/C(C#N)=N/O)[nH]c2c1 | active: 13.5 µM |  |
| COc1ccc(-c2cn3cccnc3n2)cc1NC(=O)C1CCCC1 | inconclusive: 30.1 µM [inhibitor, single point] |  |
| NC(=O)CSc1nnc(NC(=O)C23CC4CC(CC(C4)C2)C3)s1 | inconclusive: 21.3 µM [inhibitor, partial curve] |  |
| CCOC(=O)Nc1ccc(NC(=O)OCC)cc1 | inconclusive: 30.1 µM [inhibitor, partial curve, poor fit] |  |
| CC(=O)Nc1cccc(NC(=O)CSc2ccc(-c3ccccn3)nn2)c1 | inconclusive: 16.9 µM [inhibitor, partial curve, poor fit] |  |
| COc1ccc(NC(=S)Nc2ccc(S(=O)(=O)N3CCOCC3)cc2)c(OC)c1 |  | inactive: 2.49% |
| CCOc1ccc(NC(=O)Cn2cc(C(=O)c3ccc(CC)cc3)c(=O)c3cc4c(cc32)OCO4)cc1 |  | inactive: 4.08% |
| O=C(COc1ccccc1)NC(=S)N1CCc2ccccc21 | inconclusive: 23.9 µM [inhibitor, single point] |  |
| Cc1nn(-c2ccc(N3CCOCC3)nn2)c(C)c1CCC(=O)N1CCN(C)CC1 |  | inactive: -1.46% |
| COc1ccc(N2CCN(C(=O)C3CCN(Cc4nc(-c5ccc(Cl)cc5)oc4C)CC3)CC2)cc1 | inconclusive: 16.9 µM [inhibitor, partial curve, poor fit] |  |
| CC(=O)c1c(C)[nH]c(C2=NNC(=NC(C)(C)C)SC2)c1C | active: 23.9 µM |  |
| CC1=Nn2c(nnc2-c2ccco2)SC1 |  | inactive: 5.26% |
| Cc1cc(C)n2ncc(/C(N)=N/OC(=O)Nc3ccc(Cl)cc3)c2n1 | inconclusive: 37.9 µM [inhibitor, single point] |  |
| Cc1cc(C(=O)N/N=C/c2ccc(O)c(O)c2O)c(C)n1-c1ccccc1 | active: 10.7 µM |  |
| Cc1ccnc(SCC(=O)c2cc3ccccc3o2)n1 | inconclusive: 26.9 µM [inhibitor, partial curve, poor fit] |  |
| COc1ccc(-c2ccn(-c3cccc(F)n3)n2)cc1 | active: 15.1 µM |  |
| Nc1nc(/C=C/c2cccnc2)nc(-c2ccccc2O)n1 | inconclusive: 26.9 µM [inhibitor, single point] |  |

| Structure (SMILES) | Potency | activity change, negative = inhibition |
| --- | --- | --- |
| CCn1cnc2cc(NCc3ccc(C)cc3)ccc21 | active: 15.1 µM |  |
| c1nnc(-c2ccc3c(c2)OCO3)o1 |  | inactive: -4.63% |
| Cc1cc(C)c(NC(=O)CSc2n[nH]c(-c3ccccc3Cl)n2)c(C)c1 | inconclusive: 21.3 µM [inhibitor, partial curve, poor fit] |  |
| O=C(N/N=C/C=C\c1ccccc1[N+](=O)[O-])c1ccccn1 | inconclusive: 26.9 µM [inhibitor, single point] |  |
| Cc1ccn2c(Nc3ccccc3C)c(-c3ccc(N4CCOCC4)cc3)nc2c1 |  | inactive: -1.04% |
| Cc1cccc(NC(=S)/N=C(\N)Nc2nc(C)c3ccc(C)cc3n2)c1 | inconclusive: 4.78 µM [inhibitor, partial curve, poor fit] |  |
| O=C(CSc1ccc(-c2ccncc2)nn1)N1CCN(c2ccccc2)CC1 |  | inactive: 1.98% |
| N/C(=N\OC(=O)COc1ccccc1)c1ccccn1 | inconclusive: 21.3 µM [inhibitor, single point] |  |
| Cc1[nH]nc(-c2ccc(OCc3cnn(-c4ccccc4)c3)cc2O)c1Oc1ccc(Cl)cc1 |  | inactive: 0.697% |
| O/N=C/c1cc(Cl)ccc1OCc1cccc2ccccc12 | inconclusive: 37.9 µM [inhibitor, partial curve, poor fit] |  |
| COc1ccc(C(=O)COC(=O)c2cccnc2SC)cc1 | active: 3.79 µM |  |
| CCOc1ccc(C2=NNC(c3cccs3)=Nc3ccc(OCC)cc32)cc1 | inconclusive: 30.1 µM [inhibitor, partial curve, poor fit] |  |
| COc1ccc(C(=O)Nc2cccnc2)cc1 | inconclusive: 26.9 µM [inhibitor, single point] |  |
| CCn1cnc2c1c(=O)n(CC(=O)NN)c(=O)n2Cc1ccccc1 |  | inactive: -1.38% |
| O=C(O)c1ccc(N=Cc2c(O)ccc3oc4c(c23)CCCC4)cc1 | inconclusive: 37.9 µM [inhibitor, single point] |  |
| Cc1ccc(C2=CC(c3ccccc3C)n3c(nc4ccccc43)N2)cc1 (centres undefined) | active: 6.01 µM |  |
| C/C(=N\NC(=O)CSc1nc2ccccc2o1)c1ccc(O)cc1 | active: 16.9 µM |  |
| O=C(CSc1ccccc1C(=O)O)c1ccc([N+](=O)[O-])cc1 | inconclusive: 26.9 µM [inhibitor, partial curve] |  |
| Cc1cccc(C(=O)O/N=C/c2c(Cl)n(C)c3ccccc23)c1 | inconclusive: 12 µM [inhibitor, partial curve] |  |
| COc1ccc(/C=C2\SC(=S)N(CCC(=O)Nc3cccc(O)c3)C2=O)cc1 | inconclusive: 3.01 µM [inhibitor, partial curve] |  |
| Cn1c(SCn2nnc3ccccc3c2=O)nc2ccccc2c1=O |  | inactive: -7.95% |
| CCc1ccc(NC(=O)C(=O)NCCc2csc(-c3cccc(F)c3)n2)cc1 |  | inactive: -2.06% |
| COCc1cc(C)nc2sc(C(=O)Nc3ccc(OC)cc3)c(N)c12 | inconclusive: 26.9 µM [inhibitor, partial curve, poor fit] |  |
| Cc1ccc(/C=N/N2C(=O)C3C(C2=O)C2C=CC3C23CC3)o1 (centres undefined) | inconclusive: 26.9 µM [inhibitor, single point] |  |
